Laboratory results taken from patent US20220281949A1 (UNIVERSITY HEALTH NETWORK, published 2022).

Biological target: T1, recombinant 10× His-tagged CD4 protein (extracellular domain of human CD4, GS linker, 10× histidine tag) (human, UniProt P01730 in part)
T1 construct: Expressed in A375 cells, purified on TALON resin; The text says residues 26-440 of NP_000607.1, whereas the printed construct ends at ...KVLPTW; also called soluble CD4; recombinant CD4
Assay: biolayer interferometry (Octet Red): biotinylated DR1 on streptavidin sensors, soluble CD4 as analyte, 400 s association, 300 s dissociation

B1: biotinylated recombinant wild-type DR1 protein (DRA1*01:01 and DRB1*01:01 extracellular domains with leucine zippers) (peptide-MHC)
MHC II alpha: not shown
MHC II beta: GDTRPRFLWQLKFECHFFNGTERVRLLERCIYNQEESVRFDSDVGEYRAVTELGRPDAEYWNSQKDLLEQRRAAVDTYCRHNYGVGESFTVQRRVEPKVTVYPSKTQPLQHHNLLVCSVSGFYPGSIEVRWFRNGQEEKAGVVSTGLIQNGDWTFQTLVMLETVPRSGEVYTCQVEHPSVTSPLTVEWRARSESAQSKGGGGSLEIEAAFLERENTALETRVAELRQRVQRLRNRVSQYRTRYGPLGGGKGSGLNDIFEAQKIEWHE
notes: also called biotinylated HLA-DR1; recombinant DR1
binding result: no binding (tested: 26 µM)
